Repeats are few or missing, and single values can be far off.
Columns and labels:
[1] = system: CHO-K1; assay: micronucleus frequency (% of nucleated events); higher = more micronuclei (genotoxic)
[2] = system: CHO-K1; assay: relative survival (nuclei to bead ratio vs DMSO control) (% of vehicle control); higher = more surviving cells
Experimental: (§1)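 Flow-cytometric in vitro micronucleus assay (Litron MicroFlow) in CHO-K1 cells in 96-well plates, 19 concentrations (4.5-200 µM, n=1 per concentration). Without S9, cells were exposed for 24 h and sampled at 48 h. With Aroclor 1254-induced rat liver S9, cells were exposed for 3-4 h and sampled at 27-28 h. Read-outs are %MN and %hypodiploid nuclei relative to nucleated events, and relative survival as the nuclei-to-bead ratio versus the 1% DMSO vehicle control (x100).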

[3] = system: CHO-K1; assay: hypodiploid nuclei frequency (% of nucleated events); higher = more hypodiploid events (aneugenic)
Experimental: as §1
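Throughout, for hypodiploid nuclei frequency (% of nucleated events): hypodiploid nuclei gated on a flow cytometer with 488 nm excitation after SYTOX Green staining, cultures at 37 °C, positive controls vinblastine without S9 and cyclophosphamide with S9.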
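Throughout, for micronucleus frequency (% of nucleated events): cells lysed with nuclei stained by SYTOX Green, then micronucleus-gated events counted against nucleated events by flow cytometry with 488 nm excitation.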
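Throughout, for relative survival (nuclei to bead ratio vs DMSO control): Lysed-cell nuclei stained with SYTOX Green and counted against counting beads by flow cytometry at 488 nm excitation, with vinblastine (no S9) and cyclophosphamide (plus S9) as positive controls.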

Oc1ccccc1Cl [2-Chlorophenol]
Settings | hypodiploid nuclei frequency, [3] [%] | micronucleus frequency, [1] [%] | relative survival, [2]
concentration: 4.5 (µM), S9 metabolic activation: with S9, exposure time: 3-4 hours | 0.21 | 1.09 | 71.6
concentration: 4.5 (µM), S9 metabolic activation: without S9, exposure time: 24 hours | 0.6 | 1.96 | 110
concentration: 5.63 (µM), S9 metabolic activation: with S9, exposure time: 3-4 hours | 0.18 | 1.28 | 76.9
concentration: 5.63 (µM), S9 metabolic activation: without S9, exposure time: 24 hours | 0.5 | 1.22 | 127
concentration: 7.04 (µM), S9 metabolic activation: with S9, exposure time: 3-4 hours | 0.26 | 0.82 | 53.3
concentration: 7.04 (µM), S9 metabolic activation: without S9, exposure time: 24 hours | 0.54 | 1.62 | 120
concentration: 8.8 (µM), S9 metabolic activation: with S9, exposure time: 3-4 hours | 0.12 | 1.16 | 75.5
concentration: 8.8 (µM), S9 metabolic activation: without S9, exposure time: 24 hours | 0.62 | 1.22 | 102
concentration: 11 (µM), S9 metabolic activation: with S9, exposure time: 3-4 hours | 0.16 | 1.48 | 65.3
concentration: 11 (µM), S9 metabolic activation: without S9, exposure time: 24 hours | 0.6 | 1.4 | 116
concentration: 13.7 (µM), S9 metabolic activation: with S9, exposure time: 3-4 hours | 0.15 | 1.73 | 85.4
concentration: 13.7 (µM), S9 metabolic activation: without S9, exposure time: 24 hours | 0.66 | 1.44 | 123
concentration: 17.2 (µM), S9 metabolic activation: with S9, exposure time: 3-4 hours | 0.24 | 1.74 | 83.6
concentration: 17.2 (µM), S9 metabolic activation: without S9, exposure time: 24 hours | 0.5 | 1.42 | 134
concentration: 21.5 (µM), S9 metabolic activation: with S9, exposure time: 3-4 hours | 0.34 | 1.63 | 72.8
concentration: 21.5 (µM), S9 metabolic activation: without S9, exposure time: 24 hours | 0.62 | 1.56 | 102
concentration: 26.8 (µM), S9 metabolic activation: with S9, exposure time: 3-4 hours | 0.16 | 1.56 | 111
concentration: 26.8 (µM), S9 metabolic activation: without S9, exposure time: 24 hours | 0.64 | 0.82 | 117
concentration: 33.6 (µM), S9 metabolic activation: with S9, exposure time: 3-4 hours | 0.32 | 1 | 81.8
concentration: 33.6 (µM), S9 metabolic activation: without S9, exposure time: 24 hours | 0.46 | 1.24 | 107
concentration: 41.9 (µM), S9 metabolic activation: with S9, exposure time: 3-4 hours | 0.28 | 1.58 | 91.6
concentration: 41.9 (µM), S9 metabolic activation: without S9, exposure time: 24 hours | 0.6 | 1.08 | 114
concentration: 52.4 (µM), S9 metabolic activation: with S9, exposure time: 3-4 hours | 0.2 | 1.44 | 86.4
concentration: 52.4 (µM), S9 metabolic activation: without S9, exposure time: 24 hours | 0.68 | 1.7 | 122
concentration: 65.5 (µM), S9 metabolic activation: with S9, exposure time: 3-4 hours | 0.09 | 1.29 | 58.8
concentration: 65.5 (µM), S9 metabolic activation: without S9, exposure time: 24 hours | 0.68 | 1.84 | 117
concentration: 81.9 (µM), S9 metabolic activation: with S9, exposure time: 3-4 hours | 0.24 | 1.22 | 83.7
concentration: 81.9 (µM), S9 metabolic activation: without S9, exposure time: 24 hours | 0.9 | 1.82 | 105
concentration: 102 (µM), S9 metabolic activation: with S9, exposure time: 3-4 hours | 0.2 | 1.76 | 70.3
concentration: 102 (µM), S9 metabolic activation: without S9, exposure time: 24 hours | 0.62 | 2.08 | 106
concentration: 128 (µM), S9 metabolic activation: with S9, exposure time: 3-4 hours | 0.3 | 2.21 | 58.3
concentration: 128 (µM), S9 metabolic activation: without S9, exposure time: 24 hours | 1.52 | 3.58 | 103
concentration: 160 (µM), S9 metabolic activation: with S9, exposure time: 3-4 hours | 0.28 | 1.78 | 75
concentration: 160 (µM), S9 metabolic activation: without S9, exposure time: 24 hours | 1.12 | 1.72 | 119
concentration: 200 (µM), S9 metabolic activation: with S9, exposure time: 3-4 hours | 0.37 | 2.95 | 71.3
concentration: 200 (µM), S9 metabolic activation: without S9, exposure time: 24 hours | 1.04 | 2.34 | 86.3

From the supplement of paper PMC9151546
